# Reference: the supplement of paper PMC10037445
# Whole data set: some 2,900 compounds, median “IRF Lucia reporter activity, fold change vs agonist alone” near 0.9, cut for the highest 2% near 2.8. The list shows a part of the results.
# Legend:
# RAW-Dual [1] = experiment: IRF Lucia reporter activity, fold change vs agonist alone; cytotoxicity flag (confluency mask): not cytotoxic; higher = enhanced IRF activity
# In short: (§1)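 After 50 nL of library stock was delivered by pin tool to RAW-Dual macrophages (50,000 cells/well, DMEM, 384-well plates), a PRR agonist was added 1 h later and the plates were kept at 37 °C, 5% CO2. Twenty hours later, IRF was read from supernatant by QuantiLuc luminescence and NF-κB by QuantiBlue absorbance at 620 nm. Reporter activity is stated as fold change over agonist-alone wells. Wells with IncuCyte confluency under 70% of agonist controls in both mask sets were counted as cytotoxic.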
# RAW-Dual [2] = experiment: IRF Lucia reporter activity, fold change vs agonist alone; higher = enhanced IRF activity; conditions: agonist: MPLA (TLR4) […]
# In short: as §1
# RAW-Dual [3] = experiment: IRF Lucia reporter activity, fold change vs agonist alone; cytotoxicity flag (confluency mask): cytotoxic (confluency <70% of control); higher = enhanced IRF activity
# In short: as §1
# [4] = agonist: 3'3'-cGAMP (STING) 10 ug/mL
# [5] = library stock concentration (final ~1000-fold dilution): 10 mM, cytotoxicity flag (confluency mask): not cytotoxic
# [6] = library stock concentration (final ~1000-fold dilution): 10 mM, cytotoxicity flag (confluency mask): cytotoxic (confluency <70% of control)
smiles,measurement,setting,value
O=C(Nc1ccc(O)c(C(=O)O)c1)c1cccc(NC(=O)c2ccco2)c1 (library stock concentration (final ~1000-fold dilution): 10 mM),IRF Lucia reporter activity,RAW-Dual [1]; [4],0.768
same,IRF Lucia reporter activity,RAW-Dual [1]; agonist: LPS (TLR4) 0.1 ug/mL,0.874
COc1cc(Br)c(Nc2nc(-c3c(C)nc4ncccn34)cs2)c(Br)c1 (library stock concentration (final ~1000-fold dilution): 10 mM),IRF Lucia reporter activity,RAW-Dual [1]; [4],0.184
same,IRF Lucia reporter activity,RAW-Dual [1]; agonist: LPS (TLR4) 0.1 ug/mL,1.89
COc1cc(Br)c(Nc2nc(-c3c(C)nc4ncccn34)cs2)c(Br)c1,IRF Lucia reporter activity,RAW-Dual [2]; [5],1.32
CC(C)Oc1ccc(-c2nn(C(C)c3oc4ccc(F)cc4c(=O)c3-c3cccc(F)c3)c3ncnc(N)c23)cc1F (configuration not stated) (library stock concentration (final ~1000-fold dilution): 10 mM),IRF Lucia reporter activity,RAW-Dual [1]; [4],0.264
same,IRF Lucia reporter activity,RAW-Dual [1]; agonist: LPS (TLR4) 0.1 ug/mL,1.24
Cl.NCc1c[nH]c(=S)n1C1CCc2c(F)cc(F)cc2C1 (configuration not stated) (library stock concentration (final ~1000-fold dilution): 10 mM),IRF Lucia reporter activity,RAW-Dual [1]; [4],0.88
same,IRF Lucia reporter activity,RAW-Dual [1]; agonist: LPS (TLR4) 0.1 ug/mL,0.944
Cl.NCc1c[nH]c(=S)n1C1CCc2c(F)cc(F)cc2C1 (configuration not stated),IRF Lucia reporter activity,RAW-Dual [2]; [5],0.987
CN1C(=O)c2sccc2N(C)c2nc(Nc3ccc(S(N)(=O)=O)cc3)ncc21 (library stock concentration (final ~1000-fold dilution): 10 mM),IRF Lucia reporter activity,RAW-Dual [1]; [4],0.385
same,IRF Lucia reporter activity,RAW-Dual [1]; agonist: LPS (TLR4) 0.1 ug/mL,0.128
COC1CC2CCC(C)C(O)(O2)C(=O)C(=O)N2CCCCC2C(=O)OC(C(C)CC2CCC(O)C(OC)C2)CC(=O)C(C)C=C(C)C(O)C(OC)C(=O)C(C)CC(C)C=CC=CC=C1C (configuration not stated) (library stock concentration (final ~1000-fold dilution): 10 mM),IRF Lucia reporter activity,RAW-Dual [1]; [4],1.05
same,IRF Lucia reporter activity,RAW-Dual [1]; agonist: LPS (TLR4) 0.1 ug/mL,2.09
COC1CC2CCC(C)C(O)(O2)C(=O)C(=O)N2CCCCC2C(=O)OC(C(C)CC2CCC(O)C(OC)C2)CC(=O)C(C)C=C(C)C(O)C(OC)C(=O)C(C)CC(C)C=CC=CC=C1C (configuration not stated) (library stock concentration (final ~1000-fold dilution): .1 mM),IRF Lucia reporter activity,RAW-Dual [1]; [4],0.922
same,IRF Lucia reporter activity,RAW-Dual [1]; agonist: LPS (TLR4) 0.1 ug/mL,0.698
COC1CC2CCC(C)C(O)(O2)C(=O)C(=O)N2CCCCC2C(=O)OC(C(C)CC2CCC(O)C(OC)C2)CC(=O)C(C)C=C(C)C(O)C(OC)C(=O)C(C)CC(C)C=CC=CC=C1C (configuration not stated),IRF Lucia reporter activity,RAW-Dual [2]; [5],1.46
CN1CCC(OC(c2ccccc2)c2ccccc2)CC1.Cl,IRF Lucia reporter activity,RAW-Dual [2]; [5],1.09
CN1CCC(OC(c2ccccc2)c2ccccc2)CC1.Cl (library stock concentration (final ~1000-fold dilution): 10 mM),IRF Lucia reporter activity,RAW-Dual [1]; [4],0.796
same,IRF Lucia reporter activity,RAW-Dual [1]; agonist: LPS (TLR4) 0.1 ug/mL,0.768
CC(=O)c1c(C)c2cnc(Nc3ccc(N4CCNCC4)cn3)nc2n(C2CCCC2)c1=O.Cl,IRF Lucia reporter activity,"RAW-Dual [2]; library stock concentration (final ~1000-fold dilution): 10 mM water, cytotoxicity flag (confluency mask): not cytotoxic",1.08
CC(=O)c1c(C)c2cnc(Nc3ccc(N4CCNCC4)cn3)nc2n(C2CCCC2)c1=O.Cl (library stock concentration (final ~1000-fold dilution): 10 mM water),IRF Lucia reporter activity,RAW-Dual [1]; [4],0.35
same,IRF Lucia reporter activity,RAW-Dual [1]; agonist: LPS (TLR4) 0.1 ug/mL,0.962
CCC1(O)CC2CN(CCc3c([nH]c4ccccc34)C(C(=O)OC)(c3cc4c(cc3OC)N(C)C3C(O)(C(=O)OC)C(OC(C)=O)C5(CC)C=CCN6CCC43C65)C2)C1.O=S(=O)(O)O (configuration not stated),IRF Lucia reporter activity,RAW-Dual [2]; [6],2.07
CCC1(O)CC2CN(CCc3c([nH]c4ccccc34)C(C(=O)OC)(c3cc4c(cc3OC)N(C)C3C(O)(C(=O)OC)C(OC(C)=O)C5(CC)C=CCN6CCC43C65)C2)C1.O=S(=O)(O)O (configuration not stated) (library stock concentration (final ~1000-fold dilution): 10 mM),IRF Lucia reporter activity,RAW-Dual [3]; [4],0.226
same,IRF Lucia reporter activity,RAW-Dual [3]; agonist: LPS (TLR4) 0.1 ug/mL,2.16
Cc1ccc(C(=O)c2ccc(CC(=O)O)n2C)cc1 (library stock concentration (final ~1000-fold dilution): 10 mM),IRF Lucia reporter activity,RAW-Dual [1]; [4],1.01
same,IRF Lucia reporter activity,RAW-Dual [1]; agonist: LPS (TLR4) 0.1 ug/mL,1.15
Cc1ccc(C(=O)c2ccc(CC(=O)O)n2C)cc1,IRF Lucia reporter activity,RAW-Dual [2]; [5],1.04
O=C(O)CN1C(=O)c2cccc3cccc(c23)C1=O,IRF Lucia reporter activity,RAW-Dual [2]; [5],1.01
O=C(O)CN1C(=O)c2cccc3cccc(c23)C1=O (library stock concentration (final ~1000-fold dilution): 10 mM),IRF Lucia reporter activity,RAW-Dual [1]; [4],1.06
same,IRF Lucia reporter activity,RAW-Dual [1]; agonist: LPS (TLR4) 0.1 ug/mL,0.961
Cc1ccsc1C(=CCCN1CCCC(C(=O)O)C1)c1sccc1C (configuration not stated) (library stock concentration (final ~1000-fold dilution): 10 mM),IRF Lucia reporter activity,RAW-Dual [1]; [4],0.964
same,IRF Lucia reporter activity,RAW-Dual [1]; agonist: LPS (TLR4) 0.1 ug/mL,1.29
Cc1ccsc1C(=CCCN1CCCC(C(=O)O)C1)c1sccc1C (configuration not stated),IRF Lucia reporter activity,RAW-Dual [2]; [5],1
CC(C)Oc1ccc(-c2c[nH]cc2CN(C)CCN)cc1 (library stock concentration (final ~1000-fold dilution): 10 mM),IRF Lucia reporter activity,RAW-Dual [1]; [4],0.247
same,IRF Lucia reporter activity,RAW-Dual [1]; agonist: LPS (TLR4) 0.1 ug/mL,0.755
NS(=O)(=O)c1cc(C2(O)NC(=O)c3ccccc32)ccc1Cl (configuration not stated) (library stock concentration (final ~1000-fold dilution): 10 mM),IRF Lucia reporter activity,RAW-Dual [1]; [4],0.904
same,IRF Lucia reporter activity,RAW-Dual [1]; agonist: LPS (TLR4) 0.1 ug/mL,1.08
NS(=O)(=O)c1cc(C2(O)NC(=O)c3ccccc32)ccc1Cl (configuration not stated),IRF Lucia reporter activity,RAW-Dual [2]; [5],0.938
O=C(NCc1c(F)cc(F)cc1F)c1cn2c(c(O)c1=O)C(=O)N1C3CCC(C3)OC1C2 (configuration not stated),IRF Lucia reporter activity,RAW-Dual [2]; [6],0.253
O=C(NCc1c(F)cc(F)cc1F)c1cn2c(c(O)c1=O)C(=O)N1C3CCC(C3)OC1C2 (configuration not stated) (library stock concentration (final ~1000-fold dilution): 10 mM),IRF Lucia reporter activity,RAW-Dual [3]; [4],0.19
same,IRF Lucia reporter activity,RAW-Dual [3]; agonist: LPS (TLR4) 0.1 ug/mL,0.312
CC(C)(C)c1cnc(CSc2cnc(NC(=O)C3CCNCC3)s2)o1 (library stock concentration (final ~1000-fold dilution): 10 mM),IRF Lucia reporter activity,RAW-Dual [3]; [4],0.0084
same,IRF Lucia reporter activity,RAW-Dual [3]; agonist: LPS (TLR4) 0.1 ug/mL,0.0291
CC(C)(C)c1cnc(CSc2cnc(NC(=O)C3CCNCC3)s2)o1,IRF Lucia reporter activity,RAW-Dual [2]; [6],0.0426
Cc1nc[nH]c1CN1CCc2c(c3ccccc3n2C)C1=O.Cl,IRF Lucia reporter activity,"RAW-Dual [2]; library stock concentration (final ~1000-fold dilution): 2 mM water, cytotoxicity flag (confluency mask): not cytotoxic",1.28
Cc1nc[nH]c1CN1CCc2c(c3ccccc3n2C)C1=O.Cl (library stock concentration (final ~1000-fold dilution): 2 mM water),IRF Lucia reporter activity,RAW-Dual [1]; [4],1.17
same,IRF Lucia reporter activity,RAW-Dual [1]; agonist: LPS (TLR4) 0.1 ug/mL,0.816
CC(=O)Nc1cccc(-n2c(=O)n(C3CC3)c(=O)c3c(Nc4ccc(I)cc4F)n(C)c(=O)c(C)c32)c1,IRF Lucia reporter activity,RAW-Dual [2]; [5],2.57
CC(=O)Nc1cccc(-n2c(=O)n(C3CC3)c(=O)c3c(Nc4ccc(I)cc4F)n(C)c(=O)c(C)c32)c1 (library stock concentration (final ~1000-fold dilution): 10 mM),IRF Lucia reporter activity,RAW-Dual [1]; [4],0.731
same,IRF Lucia reporter activity,RAW-Dual [1]; agonist: LPS (TLR4) 0.1 ug/mL,1.96
